PubChem BioAssay AID1508623 (National Center for Advancing Translational Sciences (NCATS), 2021)
The campaign covered roughly 48,000 compounds. About 450 (0.94%) were called active. Not shown: some 19% with an inconclusive outcome. The call rests on the fitted dose curve; in most records, active means well fitted inhibition curve with a large enough effect; inconclusive means small, poorly fitted or top-dose-only effect; inactive means no such curve, though single readings can be large or run the other way. Some of the results follow.

Test: Primary qHTS for Identification of Small Molecule Inhibitors of Huntingtin Promoter Activity; further: nearly all actives have a fitted effect of over 50% in size
Details: HEK293 HTT promoter firefly luciferase reporter (activity 0% = vehicle and -100% = no light), 24 h; series mostly up to 57.5 µM; activity change, negative = inhibition: at the top concentration
Procedure, shortened: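 Quantitative HTS used concentration series of up to 57.5 uM final on HEK293 luciferase reporter cells, 24 h at 37 degrees C. Readout was Dual-Glo firefly luminescence.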

Activity change, negative = inhibition, inactive:
COc1ccc(Cl)cc1NC(=O)Cn1c(=O)n(CCCC(=O)NCCc2ccc(OC)c(OC)c2)c(=O)c2ccccc21 -17.8%
O=C(CCSCc1cccc(F)c1)NCc1ccccc1 -5.21%
CCN1CCN(c2c(S(=O)(=O)c3ccc(Cl)cc3)cnc3ccccc23)CC1 -16.7%
Cc1ccc(NC(=O)Cn2c(=O)n(CCCS(=O)(=O)C3CCCCC3)c(=O)c3ccccc32)cc1F -13.5%
COc1ccc(C(=O)c2oc3ccccc3c2NC(=O)COc2ccc(C)cc2)cc1 -3.71%
COc1ccc(S(=O)(=O)c2cc3cc(OC)ccc3oc2=O)cc1 -3.65%
CCc1ccccc1NC(=O)N1CCc2cc(OC)c(OC)cc2C1CC(=O)OC (configuration not stated) -20.5%
Cn1c(=O)c2c(-c3ccccc3Cl)n(Cc3ccc(Cl)cc3)cc2n(C)c1=O 0.0314%
Cc1cccc(N2CCN(C(=O)CCC(=O)NNc3nc4ccccc4c4nc(C)nn34)CC2C)c1 (configuration not stated) -17.1%
COc1cc(C2c3c(-c4c(C)cc(C)cc4O)n[nH]c3C(=O)N2CCCOC(C)C)cc(OC)c1OC (configuration not stated) -19.1%
CCN1CCN(c2cc(-c3ccc(F)cc3)c3c(n2)CCCCCC3)CC1 4.67% [at 25.2 µM]
CCc1ccccc1NC(=O)CN1C(=O)COc2ccc(S(=O)(=O)Nc3ccccc3)cc21 -11.5%
C#CCN(C)CC1=Cc2ccccc2Oc2ccccc21 -12%
Cc1ccc(N2CC(c3nnc(Cc4ccccc4Cl)o3)CC2=O)cc1 (configuration not stated) -16.7%
COc1ccccc1Cc1nc2ccccc2nc1SCC(=O)Nc1ccccc1C(F)(F)F -7.25%
COc1ccc(-c2nc3c(C#N)c[nH]n3c2NC2CCCC2)cc1 5.89%
COc1ccc(S(=O)(=O)n2nc(-c3ccco3)nc2NCc2ccc(OC)c(OC)c2)cc1 -16.1%
COc1ccccc1N1CCN(c2cc(C)nc3c(-c4ccc(Cl)cc4)c(C)nn23)CC1 -22.8%
CN(C)c1ccc(CNC(=O)CCn2c(=O)c3cccn3c3ccc(F)cc32)cc1 2.02%
COCCOC(=O)C1=C(C)N=C2SCCC(=O)N2C1c1ccc(OCc2ccccc2)c(OC)c1 (configuration not stated) -7.16%
COCCNC(=O)CCSc1nc(-c2ccc3c(c2)OCO3)cc(C(F)(F)F)n1 -21.7%
CCc1nnc2c(NCc3cccc(OC)c3)nc3ccccc3n12 -6.07%
CCOc1ccccc1C(=O)Nc1nnc(COC)s1 -1.94%
CCN(CC)S(=O)(=O)c1ccc2c(c1)c(=O)c(C(=O)NCc1ccccc1OC)cn2C 10.7%
Cn1c(=O)c2c(ncn2C)n(C)c1=O
Cc1cn(C)c(CC(=O)N2CCN(c3ccc(F)cc3)CC2)c1C(=O)O -19.9%
O=C(NCc1ccc2c(c1)CCN2C(=O)c1ccccc1)c1ccc(Br)o1 -14.6%
CCOC(=O)c1cc(OC(=O)c2cccc(Cl)c2)n(-c2ccccc2)n1 -6.58%
CC[C@@H]1C(=O)N(C)c2cnc(Nc3ccc(C(=O)NC4CCN(C)CC4)cc3OC)nc2N1C1CCCC1 -10.6%
CCC1CN(C(=O)N2CCC(C(=O)NCc3ccco3)CC2)c2cc(C)ccc2O1 (configuration not stated) -13.6%
CC(C)c1nc2ccc(C(=O)NCCCN3CCN(c4ccc(F)cc4)CC3)cc2o1 4.37%
COc1cccc(-n2c(-c3ccc(C)cc3)cc3c2CC(C)(C)CC3=O)c1 -13.2%
Cc1cc(C)c2c(CC(=O)Nc3c(C(=O)c4ccc(F)cc4)oc4ccccc34)coc2c1 6.6%
Cc1ccc2c(c1)CC(C)N2S(=O)(=O)c1nnc(NC(=O)CC(C)C)s1 (configuration not stated) -23.8%
COc1ccc(OC)c(NC(=O)CCc2c(C)nc3c(c(C)nn3C(C)(C)C)c2C)c1 -19.9%
Cc1c(NC(=O)c2ccc(Cl)cc2)cc(C(C)C)c(O)c1S(=O)(=O)c1ccccc1 -8.45%
COc1ccccc1C(=O)Nc1ccc(OCc2cc(=O)n3cccc(C)c3n2)cc1 -6.12%
Cc1cc(NC(=O)CSc2nc3c([nH]c4ccccc43)c(=O)n2-c2ccc(Cl)cc2)no1 -11.6%
Cc1cc(=O)n(Cc2ccccc2Cl)c2c1c(C)nn2-c1ccccc1 -18.8%
O=C(NCC1CCN(Cc2ccccc2Cl)CC1)c1cc2ccc3cccnc3c2[nH]1 -7.82%
O=C(CC1Oc2ccccc2NC1=O)NCc1ccc(F)cc1 (configuration not stated) -5.77%
COc1ccc(CC(=O)Nc2nnc3n2CCS3)cc1 0.0678%
O=c1oc2ccc(F)cc2cc1-c1nc(-c2cccs2)no1 50%
Cc1ccc(CSc2nc3ccsc3c(=O)n2CCC(C)C)cc1 -3.48%
CCN1CCN(C(=O)c2ccc3c(c2)N(Cc2ccc(F)cc2)C(=O)c2ccccc2S3(=O)=O)CC1 -14.6%
Cc1cccc(OCc2nnc(-c3ccccc3)o2)c1 50.6%
CCn1c2c(c(=O)n3ncc(C(=O)Nc4ccc(F)cc4Cl)c13)CN(Cc1ccc(OC)cc1)CC2 -27.7%
Cc1ccc(-c2nc(-c3cc4cccc(OCc5cccc(F)c5)c4oc3=O)no2)cc1 -11.2%
CCOc1ccc(-n2c(Cc3ccccc3)nnc2SCc2nc(-c3cccs3)no2)cc1 -16.4%
COc1cccc(NC(=O)c2sc3nc(C)c(C(=O)Nc4ccc(C)cc4C)c(-c4cccs4)c3c2N)c1 -12.6%
Cc1cc(C)cc(NC(=O)C2CCN(S(=O)(=O)c3c(C)noc3/C=C/c3ccco3)CC2)c1 -9.18%
Cc1ccn2c(Nc3c(C)cccc3C)c(-c3ccc(Cl)s3)nc2c1 -18%
Cc1ccc2c(c1)c1c(c(=O)n(-c3ccccc3C)c(=O)n1Cc1cccc(F)c1)n2C -19.7%
Cc1ccc(Cl)cc1NC(=O)C(NS(=O)(=O)c1ccc2c(c1)CCC(=O)N2)c1ccccc1 (configuration not stated) -15.5%
CCc1ccc(NCc2cc3cc(OC)c(OC)cc3n(CC(=O)Nc3ccc(F)cc3)c2=O)cc1 -20%
Cc1cccc(NC(=O)CC2C(=O)OCCN2Cc2ccccc2)c1 (configuration not stated) -36.8%
CC1=C(c2ccc(F)cc2)S(=O)(=O)NC1=NCc1ccccc1Cl -28.6%
CC(C)(C)C(=O)Nc1ccc2nc(SCc3ccccc3)sc2c1 -15.7%
COc1ccc2cc(CNc3ccccc3)c(=O)n(CC(=O)Nc3ccc(C(C)=O)cc3)c2c1 -37.4%
Cc1ccccc1C(=O)NC(=O)Nc1ccc(-n2nc(C(F)(F)F)cc2C(F)(F)F)cc1 -6.36%
COc1cccc(CNC(=O)CCn2c(=O)c3cccn3c3cccnc32)c1 5.38%
CCC(=O)N1CCc2cc(S(=O)(=O)NC(Cc3ccccc3)C(=O)NCc3cccc(OC)c3)ccc21 (configuration not stated) -18.8%
